In the RNAGym collection of RNA variant scans (doi:10.7554/elife.90254) one finds self-cleavage data, which are given here for 167 variants.

The chains are these.
B1: LINE1-mini (parent)
chain: GGCAGAGCUCAACACAGCGUGGCAAAGUGGCUGUGGCUAGACUGCC

Read counts are not given, so values of variants with three or more changes are uncertain.

The series covers variants of B1. As to the kind of experiment: self-cleavage, relative activity (ratio to wild type); higher = more cleavage; in vitro, sequencing; the parent is a self-cleaving ribozyme.
A6U G35A C37A G40A: the self-cleavage turned out to be 0.12. With A6U G7A A16G G17A G36A, the self-cleavage stood at 0.28. The value for A6G G7C C10A A25C G33C C42A was 0.01; that for A6G G7U U9A A11G G29A U34A was 0.02.

Turning to A6U A11C A41U G44U, the self-cleavage was determined as 0.02. The value for A6U A25G G36U C45A was 0.05. As for A6U G29C C42A, the self-cleavage came to 0.05. Turning to A6G G21C A24C G36U C46A, the self-cleavage stood at 0. As for A6U C8G A25G G40A, the figure is 0.47; as for A6U G21A A26U, 0.74. The value for A6U G7U C15G A16U G17C was 0.01; that for A6U A25C U28C was 0.15. As for A6U U34A C42U, the figure is 0.37.

Consider A6U U28C C31U U38C, for which the self-cleavage worked out at 0.03. As for A6G C31U U34C, the figure is 0.01; as for A6U G21A C23A G35C U43C, 0.01.

With A6U A25C G27A U28G C31A U38G G44U C46A, the self-cleavage was found to be 0.03. For the variant A6G C37A C45U, the self-cleavage worked out at 0.02. Take A6U C15A G22C U34C: the self-cleavage is 0.07. The value for A6G G19U G22U U32A C45A was 0.42; that for A6U G30A A39C was 0.05; that for A6U C13A C23G was 0.15.

Regarding A6U C10A G21U G36A A39U, the self-cleavage is 0. As for A6G G7C G33U, the figure is 0.03.

In the case of A6U G33U U34C G40A, the self-cleavage was determined as 0.06. As for A6G G21U A24U G35U, the figure is 0.19. As for A6G G27U G29C C46U, the figure is 0.08; as for A6U G17U G22C G30U, 0.22; as for A6G C23U G40A, 0.06. The value for A6U U34G C42A was 0.09. A6U C8U G21U C37G: the self-cleavage is 0.02. The value for A6G G21C G40C was 0.03; that for A6U C37A C46G was 0.14. Turning to A6U G19C G21A G22U U38G A39U G40U, the self-cleavage is 0.01. Turning to A6U G19U U38C A41G, the self-cleavage was 0.12. Turning to A6U C10A C15G G21U U38A C42U, the self-cleavage is 0.03. As for A6U A24G G36U C37U, the figure is 0.01. The value for A6U G40C U43G was 0.09.

Regarding A6U G7U A11G G29C U34A C37U, the self-cleavage stood at 0.01. The value for A6U A12C A16G C46G was 0; that for A6U C8U C13U C18U G21U G40A was 0.08.

On to G7A A14C U32C, for which the self-cleavage amounted to 0.07. The value for G7A A11C G19U A41C was 0.01.

In the case of G7A A11G C23A C31A, the self-cleavage turned out to be 0.03.

Turning to G7A C8A G21A G22C G40C, the self-cleavage came out at 0.12.

For A6U G7U G22A C42U, the self-cleavage came to 0.02. On to A6U G7U A14G, for which the self-cleavage was found to be 0.09.

In the case of A6U A25C U34C, the self-cleavage is 0.19.

For the variant G7A A14C C18A G36C, the self-cleavage is 0.02. As for A6G G27C G30A U43A C45A, the figure is 0.13; as for A6U U9A C13A G29U, 0.19. The value for A6U C8A C18U C45U was 0.12. As for A6G C37U C46A, the self-cleavage was found to be 0.03. The value for A6G G7U A14C A16U G27U was 0.04.

For the variant G7A C8G G17C U34C G36C, the self-cleavage was 0.04.

Turning to A6U C8A G27U, the self-cleavage came out at 0.19. Consider A6G U9G G22A G27A U32A G35C U43G, for which the self-cleavage is 0.01. The value for A6U G35U A39G C42U was 0.07; that for A6U G22C G33A C45A was 0.09. Turning to A6U A26C C42U, the self-cleavage came to 0.34. Consider G7A A11C G17A U32A G40U, for which the self-cleavage was 0.01. As for A6U A12C A39C U43A, the figure is 0.01. Consider A6U A24C G29A C45A, for which the self-cleavage turned out to be 0.22.

Turning to G7A A14U G29C, the self-cleavage turned out to be 0.3. As for A6G G19A U32A, the figure is 0.09; as for A6U C15U G22A C23G G27A, 0.81; as for A6U A11C C23G U28C G29A A39U, 0.01. Consider A6G G19C G27A G29U G36A, for which the self-cleavage is 0.27.

In the case of A6U C37U G40C, the self-cleavage was found to be 0.1. The value for A6U A11G G27C G29C was 0.01; that for A6G G21U G30C G36A C45G was 0.03; that for A6U G19C A26U was 0.39. Turning to A6G G7C C13U U28G G33A, the self-cleavage came to 0.08. The value for A6G U20A G22A was 0.02; that for G7A A25U U32A C45A was 0.12; that for A6G U9C C10U U20C A25C C37U was 0.01.

Turning to A6U C18G G19U G33U G44U, the self-cleavage came to 0.

As to A6U A25C G27U G33U A39U, the self-cleavage worked out at 0.07. With A6G G7A C37A, the self-cleavage was determined as 0.02. On to A6G G7A A14G A39G, for which the self-cleavage was 0. On to A6G G19U U43A, for which the self-cleavage was determined as 0.11. In the case of A6U A14G A24G G30U G36A U43C, the self-cleavage is 0.02. G7A C8G C23U A26C: the self-cleavage was 0.05. The value for G7A A24U C31U was 0.03; that for A6G U9G G29A was 0.01; that for A6U G27C G35U G36U C46G was 0.71.

A6G C23G G27U: the self-cleavage was 0.04. Turning to A6U G35U G40A, the self-cleavage came out at 0.27. For A6G G29A A41U, the self-cleavage is 0.12.

As to A6U C13A U20A G22U, the self-cleavage is 0.21. Take A6G U9G G22C G30A: the self-cleavage stood at 0.08. Consider A6G U20A A26G U43C, for which the self-cleavage was found to be 0.02.

On to A6U G22A U28A, for which the self-cleavage was determined as 0.22. With G7A A14U C15A G21U G30U G36U, the self-cleavage amounted to 0.03.

As to A6U C10A A12U G21A G40U, the self-cleavage stood at 0. As for A6U A12G C42U G44A C45A, the figure is 0.06; as for A6U A12C U20C A41C, 0.04; as for G7A A26C G33U, 0.23. As for G7A A26C G33A, the figure is 0.09. As for G7A A16G C42U, the figure is 0.09; as for A6U C45U C46G, 0.62; as for A6U G22A C23G G27A, 0.47. For the variant A6U U20A C37U C45U, the self-cleavage worked out at 0.08.

A6G G7A A25G G27U: the self-cleavage worked out at 0.01. As for A6G C37A C42A, the figure is 0.03. The value for A6U C31G C46A was 0.32; that for A6G G21U A24G G30C U32A U34G was 0.03; that for A6U C8A A12U C18A G36C C45A was 0.02. A6G U34A G35U: the self-cleavage was 0.01. As for G7A A24C G27U, the figure is 0.02. The value for A6U G7U A25U G36A G44U was 0.11; that for A6U C42G C46A was 0.03.

Regarding A6U C10G G40A C42G G44C, the self-cleavage amounted to 0.02. As for A6U A11G A26C, the self-cleavage is 0.02. The value for A6U A14G C15G C31U U32C U34C C37A was 0; that for A6U C10A G17U was 0.06. With A6U G22A C45U, the self-cleavage is 0.56.

On to A6U C45G C46U, for which the self-cleavage was 1.41. As for A6U G21A U32G, the figure is 0.05. The value for A6G U9A C13U C18G G30C G40U A41G was 0.07; that for A6U G7U G21U C42A was 0.29; that for A6G C18U G21U G44C was 0.16. The value for A6U A14C C23A was 0.33.

Consider A6U C8A A25G U43A, for which the self-cleavage was 0.04. The value for A6U C8G U28A was 0.07; that for A6G G30C A39U was 0.07; that for A6U G17A A24C U32A C42G was 0.01. For A6U C37A A41C C46A, the self-cleavage worked out at 0.01. As for A6U A11C G44C, the figure is 0.06. Regarding A6U G17U A25G, the self-cleavage was determined as 0.01.

For A6U C10A C13A G19U G27A C31U, the self-cleavage worked out at 0.01. The value for A6U A11U C15A C45A was 0.03. With A6G C18G C37A U38G U43C, the self-cleavage was determined as 0.01. In the case of A6G U28G G35A, the self-cleavage was determined as 0.03. As to A6U C31G G35A U38A, the self-cleavage was 0.02.

Regarding A6U G27C A41U, the self-cleavage is 0.04.

On to A6U G33U U38C, for which the self-cleavage was 0. As for A6U C8G C31A C42A, the self-cleavage is 0.02.

A6G G7C U9G C31U: the self-cleavage came to 0.09. The value for A6G G19U G29U was 0.05; that for A6G G7U U20C A25U G35A was 0.07. Regarding G7A C8U G36C C45G, the self-cleavage was 0.25.

For the variant G7A C8U C13U G17U, the self-cleavage was determined as 0.45.

Turning to G7A A14U U20C, the self-cleavage came out at 1.95. For A6U G7A C15G G17A C31A, the self-cleavage amounted to 0.06. As for G7A A16G A26U, the figure is 0.12; as for A6U A12U C13A C15U C23U, 0.03. For A6U G19U C37U, the self-cleavage came to 0.02. As for A6G G29A U32C, the figure is 0.07; as for A6U A11G C15A C31U, 0.01; as for G7A C8A A14U G21A U34G A39U, 0.23. As for A6U G21A G30A U38C, the figure is 0.73. As for G7A A16G C37U, the figure is 0.11; as for G7A A16G C37A, 0.91; as for A6U G7A C8U G21A G33C, 0.58. Consider G7A C8G U9C C10U A11C G17A G19U, for which the self-cleavage worked out at 0.02. For A6G C18G C37A, the self-cleavage stood at 0.06. The value for A6U A11U C15G A39U was 0. The value for A6U C10U G29A was 0.1. Turning to A6U C23U U32C, the self-cleavage amounted to 0.25. Turning to A6U U9G C10U A39U, the self-cleavage was 0.06.

For the variant A6U G40A U43A, the self-cleavage turned out to be 0.1. With A6G U9A G17C U20A G22U G44U, the self-cleavage was 0.

In the case of A6G G36A G44C, the self-cleavage amounted to 0.18. As for A6U C18A C46A, the figure is 0.58; as for A6G C23A G35U, 0.05; as for A6G C23U G27C A41G C45A, 0.14.
